Measured values as given in the antibiotic and cytotoxicity screens of Wong et al. (2023).
The other results are listed elsewhere or left out.

Each compound was assayed on HSkMC (human skeletal muscle cells) (assay: cytotoxicity call (relative viability < 0.9)). Settings: 10 µM.

| SMILES | cytotoxicity call |
| --- | --- |
| C=C(O)C(=O)O | inactive |
| C[C@@H]1CN([C@@H](C)CO)C(=O)c2cccc(NS(C)(=O)=O)c2O[C@H]1CN(C)C(=O)NC1CCCCC1 | inactive |
| Cc1noc(C)c1S(=O)(=O)Nc1ccc2c(c1)C(=O)N([C@@H](C)CO)C[C@@H](C)[C@@H](CN(C)Cc1ccc(C(F)(F)F)cc1)OCCCC[C@H](C)O2 | inactive |
| O=C(CCCCCCC(=O)Nc1ccc(C(=O)NCCOCCOCCNC(=O)c2ccc(NC(=O)CCCCCCC(=O)NO)cc2)cc1)NO | inactive |
| CC[C@@H](CO)NC(=O)c1ccc(N)cc1 | inactive |
| C[C@@H]1CN([C@H](C)CO)C(=O)c2cc(NC(=O)CCCN(C)C)ccc2O[C@H]1CN(C)C(=O)NC1CCCCC1 | inactive |
| C[C@H](CO)N1C[C@H](C)[C@H](CN(C)S(=O)(=O)c2cccs2)OCCCC[C@H](C)Oc2ccc(NC(=O)C3CCCCC3)cc2C1=O | inactive |
| O=c1cc(-c2ccccc2)[nH]c(=O)[nH]1 | inactive |
| C[C@@H]1CN([C@@H](C)CO)S(=O)(=O)c2ccc(C#CCN(C)C)cc2O[C@H]1CN(C)S(C)(=O)=O | inactive |
| NCC1OC(OC2C(N)CC(N)C(OC3OC(CO)C(O)C(N)C3O)C2O)C(O)C(O)C1O.O=S(=O)(O)O (stereo not drawn) | inactive |
| N[C@@H](CC(=O)Nc1ccc(Cl)cc1)C(=O)O | inactive |
| CN1C(=O)[C@@H]2[C@@H]3C[C@H]4[C@@H](O[C@H]1[C@H]42)[C@H]3O | inactive |
| C[C@@H]1CN([C@H](C)CO)S(=O)(=O)c2ccc(C3=CCCC3)cc2O[C@H]1CN(C)C(=O)C1CCOCC1 | inactive |
| CN(CC(=O)NC1CCCCC1)S(C)(=O)=O | inactive |
| C[C@@H]1CN([C@H](C)CO)C(=O)c2cc(-c3ccc(C(=O)N(C)C)cc3)cnc2O[C@H]1CN(C)C(=O)C1CC1 | inactive |
| N=c1ccn2c(n1)O[C@H]1[C@H](O)[C@@H](CO)O[C@H]12 | active |
| COc1ccccc1NC(=O)N(C)C[C@H]1Oc2cc(Br)ccc2S(=O)(=O)N([C@@H](C)CO)C[C@H]1C | inactive |
| Cc1noc(C)c1NC(=O)Nc1ccc2c(c1)C(=O)N([C@@H](C)CO)C[C@@H](C)[C@H](CN(C)Cc1ccc(Cl)c(Cl)c1)OCCCC[C@@H](C)O2 | inactive |

These compounds were tested on HepG2 (assay: cytotoxicity call (relative viability < 0.9)). Settings: 10 µM.

| SMILES | cytotoxicity call |
| --- | --- |
| C[N+]1(C)C[C@@H](O)C[C@H]1C(=O)O | inactive |
| COCC#Cc1cnc2c(c1)C(=O)N([C@H](C)CO)C[C@H](C)[C@H](CN(C)C(C)=O)O2 | inactive |
| COc1ccccc1C#Cc1cnc2c(c1)C(=O)N([C@H](C)CO)C[C@@H](C)[C@@H](CN(C)C(=O)CN(C)C)O2 | inactive |
| Cc1noc(C)c1NC(=O)Nc1ccc2c(c1)C(=O)N([C@H](C)CO)C[C@H](C)[C@H](CN(C)C(=O)Nc1cccc3ccccc13)O2 | inactive |
| CN1C(=O)c2cc(NC(=O)c3ccno3)ccc2OC[C@H]2O[C@@H](CC(=O)NC3Cc4ccccc4C3)CC[C@@H]21 | inactive |
| C[C@@H]1CN([C@@H](C)CO)C(=O)Cc2cc(NC(=O)NC3CCCCC3)ccc2O[C@@H]1CN(C)Cc1ccc(Oc2ccccc2)cc1 | active |
| C[C@H]1CCCCO[C@@H](CN(C)Cc2ccccc2)[C@@H](C)CN([C@@H](C)CO)C(=O)c2cc(NS(=O)(=O)c3ccc(F)cc3)ccc2O1 | inactive |
| C[C@H]1CCCCO[C@H](CN(C)S(C)(=O)=O)[C@@H](C)CN([C@@H](C)CO)C(=O)c2cc(NS(=O)(=O)c3ccccc3)ccc2O1 | inactive |
| COc1ccc(C#Cc2cnc3c(c2)C(=O)N([C@H](C)CO)C[C@H](C)[C@H](CN(C)C(=O)CN(C)C)O3)cc1 | inactive |
| CC(=O)N1Cc2cc(C(=O)NCc3cc(F)cc(F)c3)nc(-c3cccc(C4=CCCC4)c3)c2[C@@H]1CCO | inactive |
| C[C@H]1CN([C@@H](C)CO)C(=O)CCCn2cc(nn2)CO[C@@H]1CN(C)C(=O)c1ccc(N2CCN(C)CC2)cc1 | active |
| CN(Cc1cc(Br)cc(Br)c1N)C1CCCCC1.Cl | inactive |
| COc1ccc(S(=O)(=O)N(C)C[C@H]2OCCCC[C@H](C)Oc3ccc(NC(=O)Nc4cccc5ccccc45)cc3C(=O)N([C@H](C)CO)C[C@@H]2C)cc1 | inactive |
| C[C@@H]1CN([C@H](C)CO)C(=O)c2cc(NC(=O)Nc3ccc(F)cc3)ccc2O[C@H]1CN(C)S(=O)(=O)c1cn(C)cn1 | inactive |
| C[C@@H]1CN([C@@H](C)CO)C(=O)Cc2cc(NC(=O)Nc3ccc(C(F)(F)F)cc3)ccc2O[C@@H]1CN(C)S(=O)(=O)c1ccc(Cl)cc1 | active |
| COc1ccccc1NC(=O)N(C)C[C@@H]1Oc2ncc(C#CCN(C)C)cc2C(=O)N([C@@H](C)CO)C[C@H]1C | active |
| COc1ccc2c3c(n(c2c1)C)[C@@H](CO)N(C[C@]13CCN(CC1)S(=O)(=O)c1ccccc1)C(=O)c1cccnc1 | inactive |
| Cc1ccc(S(=O)(=O)N(C)C[C@@H]2OCCCC[C@H](C)Oc3ccc(NC(=O)NC4CCCCC4)cc3C(=O)N([C@H](C)CO)C[C@H]2C)cc1 | active |
| Cc1noc(C)c1NC(=O)N(C)C[C@@H]1OCCCC[C@@H](C)Oc2ccc(NC(=O)Nc3ccccc3)cc2C(=O)N([C@@H](C)CO)C[C@H]1C | inactive |
| Cn1ncc2c(NN3C(=O)CCC3=O)ncnc21 | inactive |

| SMILES | cytotoxicity call |
| --- | --- |
| Cc1noc(C)c1NC(=O)N(C)C[C@H]1OCCCC[C@H](C)Oc2ccc(NC(=O)Nc3ccc(C(F)(F)F)cc3)cc2C(=O)N([C@H](C)CO)C[C@@H]1C | inactive |
| Cn1c(=O)c2c(nc(SCCNS(=O)(=O)c3ccccc3)n2C)n(C)c1=O | inactive |
| C=C(O)C(=O)O | inactive |
| C[C@@H]1CN([C@@H](C)CO)C(=O)c2cccc(NS(C)(=O)=O)c2O[C@H]1CN(C)C(=O)NC1CCCCC1 | inactive |
| Cc1noc(C)c1S(=O)(=O)Nc1ccc2c(c1)C(=O)N([C@@H](C)CO)C[C@@H](C)[C@@H](CN(C)Cc1ccc(C(F)(F)F)cc1)OCCCC[C@H](C)O2 | inactive |
| O=C(CCCCCCC(=O)Nc1ccc(C(=O)NCCOCCOCCNC(=O)c2ccc(NC(=O)CCCCCCC(=O)NO)cc2)cc1)NO | inactive |
| CC[C@@H](CO)NC(=O)c1ccc(N)cc1 | inactive |
| C[C@@H]1CN([C@H](C)CO)C(=O)c2cc(NC(=O)CCCN(C)C)ccc2O[C@H]1CN(C)C(=O)NC1CCCCC1 | inactive |
| C[C@H](CO)N1C[C@H](C)[C@H](CN(C)S(=O)(=O)c2cccs2)OCCCC[C@H](C)Oc2ccc(NC(=O)C3CCCCC3)cc2C1=O | inactive |
| O=c1cc(-c2ccccc2)[nH]c(=O)[nH]1 | inactive |
| C[C@@H]1CN([C@@H](C)CO)S(=O)(=O)c2ccc(C#CCN(C)C)cc2O[C@H]1CN(C)S(C)(=O)=O | inactive |
| NCC1OC(OC2C(N)CC(N)C(OC3OC(CO)C(O)C(N)C3O)C2O)C(O)C(O)C1O.O=S(=O)(O)O (stereo not drawn) | inactive |
| N[C@@H](CC(=O)Nc1ccc(Cl)cc1)C(=O)O | inactive |
| CN1C(=O)[C@@H]2[C@@H]3C[C@H]4[C@@H](O[C@H]1[C@H]42)[C@H]3O | inactive |
| C[C@@H]1CN([C@H](C)CO)S(=O)(=O)c2ccc(C3=CCCC3)cc2O[C@H]1CN(C)C(=O)C1CCOCC1 | inactive |
| CN(CC(=O)NC1CCCCC1)S(C)(=O)=O | inactive |
| C[C@@H]1CN([C@H](C)CO)C(=O)c2cc(-c3ccc(C(=O)N(C)C)cc3)cnc2O[C@H]1CN(C)C(=O)C1CC1 | inactive |
| N=c1ccn2c(n1)O[C@H]1[C@H](O)[C@@H](CO)O[C@H]12 | inactive |
| COc1ccccc1NC(=O)N(C)C[C@H]1Oc2cc(Br)ccc2S(=O)(=O)N([C@@H](C)CO)C[C@H]1C | inactive |
| Cc1noc(C)c1NC(=O)Nc1ccc2c(c1)C(=O)N([C@@H](C)CO)C[C@@H](C)[C@H](CN(C)Cc1ccc(Cl)c(Cl)c1)OCCCC[C@@H](C)O2 | active |
